Results taken from PubChem BioAssay AID488969 (Vanderbilt High Throughput Screening Facility, 2010).
Whole data set: some 110,000 compounds, median “z-score” near -0.1, cut for the highest 2% near 2. The list shows a part of the results.

Each compound was assayed against Metabotropic glutamate receptor 8 (Rattus norvegicus) (UniProt P70579) (assay: rat mGluR8 modulators via GIRK flux, primary screen, cell-based, thallium flux, HTS (AID 488969)). Details: HEK293 rat mGluR8, GIRK (G protein-gated inwardly rectifying potassium channel) thallium flux, FluoZin2; at 10 µM; stronger effect = higher value.
UniProt P70579, sequence (P70579 whole entry, looked up): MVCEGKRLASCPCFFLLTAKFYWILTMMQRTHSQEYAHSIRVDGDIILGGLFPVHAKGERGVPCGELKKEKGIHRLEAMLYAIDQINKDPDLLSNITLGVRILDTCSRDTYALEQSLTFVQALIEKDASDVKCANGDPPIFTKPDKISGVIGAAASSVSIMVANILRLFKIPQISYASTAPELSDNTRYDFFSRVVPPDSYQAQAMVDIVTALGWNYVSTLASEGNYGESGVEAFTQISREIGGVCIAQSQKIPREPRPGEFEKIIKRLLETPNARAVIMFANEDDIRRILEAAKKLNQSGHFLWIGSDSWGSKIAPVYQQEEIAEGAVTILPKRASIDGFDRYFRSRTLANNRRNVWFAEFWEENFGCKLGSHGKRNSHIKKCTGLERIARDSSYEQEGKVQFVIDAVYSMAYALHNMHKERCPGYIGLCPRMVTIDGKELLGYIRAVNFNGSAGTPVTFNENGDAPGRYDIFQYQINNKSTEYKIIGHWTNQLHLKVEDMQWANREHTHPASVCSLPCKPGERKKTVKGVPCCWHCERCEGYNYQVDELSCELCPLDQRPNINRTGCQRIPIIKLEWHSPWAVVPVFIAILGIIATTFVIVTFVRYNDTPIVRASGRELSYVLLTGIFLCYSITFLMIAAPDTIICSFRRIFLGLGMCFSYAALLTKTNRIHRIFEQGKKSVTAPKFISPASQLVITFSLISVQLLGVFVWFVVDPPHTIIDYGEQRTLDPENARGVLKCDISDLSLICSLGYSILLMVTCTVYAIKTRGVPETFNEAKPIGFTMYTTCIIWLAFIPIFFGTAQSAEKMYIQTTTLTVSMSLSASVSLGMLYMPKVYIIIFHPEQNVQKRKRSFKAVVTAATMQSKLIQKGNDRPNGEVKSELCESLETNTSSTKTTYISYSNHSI

Compound | z-score
COc1ccc(CCn2c(O)c(C=NCCN3CCCCC3)c(=O)[nH]c2=O)cc1OC | -0.303
CCC12CN3CCN(CC(C3)C1O)C2 (stereo not drawn) | -0.345
CCOC(=O)C(O)(c1ccc(N(CC)C(=O)COc2ccccc2)cc1)C(F)(F)F (stereo not drawn) | -0.213
COc1ccc(C(=O)N2CCOCC2)cc1S(=O)(=O)N1CCC(C)CC1 | 0.244
CNC(=O)N(C)c1nnc(C(C)(C)C)s1 | 0.546
CC(C)COc1ccc(C2(C#N)CC[N+](C)(C)CC2)cc1 | 0.581
O=C(c1ccccc1F)c1cn(CC(=O)N2CCCC2)c2ccccc12 | -0.289
Cc1cc(C)nc(/N=C(\N)c2c(O)[nH]c(=O)[nH]c2=O)n1 | -0.192
CN(C)C1(CNC(=O)c2ccc(Cl)c(S(=O)(=O)NCc3ccco3)c2)CCCCC1 | 0.144
CCc1c(C)nc(N)nc1N1N=C1SCC#N | 8.12e-05
NC(=O)Nc1cccc(C(F)(F)F)c1 | -0.308
O=C1CC(N2CCC(n3c(=O)[nH]c4ccccc43)CC2)C(=O)N1Cc1ccccc1 (stereo not drawn) | -0.57
c1ccc(C2N3CCCN23)cc1 (stereo not drawn) | 0.201
CC(C)C/C(=N/O)c1c[nH]c2ccccc12 | -0.0354
Oc1ccc(C2NCc3ccccc3-n3cccc32)cc1Cl (stereo not drawn) | 1.68
Cc1ccc2c(c1)C1CN(C)CCC1N2S(=O)(=O)c1ccccc1 (stereo not drawn) | -1.68
O=C(N/N=C1/CN2CCC1CC2)c1cccc(O)c1 | -0.00337
COCc1c(CN)cnc(C)c1N | -0.0285
O=C(CN1CC=C(c2ccccc2)CC1)NC(=O)NCc1ccco1 | -0.0787
O=P(C(c1ccc2c(c1)OCO2)N1CCOCC1)(N1CCOCC1)N1CCOCC1 (stereo not drawn) | -0.49
CCCCn1c(O)c(C(C)=NCCN2CCOCC2)c(=O)[nH]c1=O | 0.119
CCOC(=O)C(O)(c1ccc(NC(=S)NC(=O)c2ccc(Cl)cc2Cl)c(C)c1)C(F)(F)F (stereo not drawn) | 1.21
CN(C)CCN=Cc1c(O)n(Cc2ccco2)c(=O)[nH]c1=O | 0.184
CNC(=S)NC1CC2CCCC(C1)N2CC(C)C (stereo not drawn) | -0.0397
Clc1ccccc1CNC1CN2CCC1CC2 (stereo not drawn) | 0.156

Compound | z-score
CCC(C)N=Cc1c(O)n(-c2ccccc2)c(=O)[nH]c1=O (stereo not drawn) | -0.117
COc1cc(C(=O)Nc2ccc(Br)cc2C(=O)c2ccccc2Cl)cc(OC)c1OC | -0.615
CN(C)C(=O)Oc1ccc2ccccc2c1Cl | -0.252
CCN(CC)C(=O)c1ccc(NC(=O)c2cc(-n3cnnc3)ccc2Cl)cc1 | 0.701
CCC(C)n1c(O)c(/C=N/Nc2ccccc2)c(=O)[nH]c1=S (stereo not drawn) | -0.315
O=C1CN(C(=O)CN2CCCCC2)C(c2ccccc2)c2cc(Br)ccc2N1 (stereo not drawn) | -0.45
O=P(Nc1ccccc1Cl)(c1ccccc1)c1nc2c(s1)CCCC2 (stereo not drawn) | 0.115
Cn1c(O)c(C=NCCCC(=O)O)c(=O)n(C)c1=O | -1.02
COc1ccc(/C=C2\C(=N\O)C3CCN2CC3)cc1 | -0.214
C=CCN1C(=O)c2ccccc2Sc2ccc(C(=O)N3CCC4(CC3)OCCO4)cc21 | -0.666
CC(=O)N1CC(=O)Nc2ccc(Cl)cc2C1c1ccc(F)cc1 (stereo not drawn) | -0.284
O=C1NC(=O)N(c2ccc(F)cc2)C(=O)/C1=C/c1ccc2c(c1)CCCN2Cc1ccccc1 | -0.195
CCC(C)C1(CC)C(=O)NC(=O)N=C1N (stereo not drawn) | -0.0437
Cc1nn(C2CCOC(C)(C)C2)c2c1C(c1ccc3c(c1)OCO3)SCC(=O)N2 (stereo not drawn) | -0.591
CC(=NCCN1CCOCC1)c1c(O)n(-c2ccccc2C)c(=O)[nH]c1=O | 0.506
COC(=O)CSC1=NP(=S)(SCC(=O)OC)N2CCCC2=C1C#N (stereo not drawn) | 0.603
CN1CCN(c2ccc(C(N)=O)cc2N)CC1 | -0.803
COC(=O)CN1C(=O)C2(C(C(=O)OC)=C(N)Oc3ccccc32)C2=C1CC(C)(C)CC2=O (stereo not drawn) | 0.262
CCCCc1nc(N2CCNCC2)c(C#N)c2c1CSC(C)(C)C2 | 2.01
CC(C)Sc1nnc([C@@H](N)Cc2c[nH]c3ccccc23)o1 | 0.315
COc1ccccc1CN1CCCCC1c1cccnc1 (stereo not drawn) | -0.195
Cc1cccc(N2C(=O)NC(=O)/C(=C\c3cc(C)n(-c4sc5c(c4C#N)CCCC5)c3C)C2=O)c1C | 0.0132
COc1ccccc1CCNCc1cc2c(cc1[N+](=O)[O-])OCO2 | -0.956
Cc1ccc(C2=NC(C)(C)N3C2C3c2ccc([N+](=O)[O-])cc2)cc1 (stereo not drawn) | 0.597
CN1CN=C(N[N+](=O)[O-])N(Cc2ccco2)C1 | -0.203

Compound | z-score
c1ccc2c(CCNCc3ccc4c(c3)OCO4)c[nH]c2c1 | 2.19
CN1C(=O)C(=Cc2ccc(N3CCOCC3)o2)C(=O)N(C)C1=O | -0.283
CNCC1(c2ccccc2)CCCC1 | 0.566
NC12CN3CN(CN(C3)C1)C2 (tested in a mixture with another compound) | -0.55
O=C(c1cc2c(s1)CCCC2)N1CCC2(CC1)OCCO2 | -0.173
CC(C)CNC(=O)c1c(N)n(Cc2ccco2)c2nc3ccccc3nc12 | 0.259
COc1ccccc1Sc1ccccc1CC(C)N (stereo not drawn) | 1.35
O=P(N1CCCCC1)(N1CCCCC1)C(Cl)(Cl)Cl | -0.128
Cc1cccc(C(=O)Nc2ccc(Cl)cc2C(=O)c2ccccc2)c1 | -0.24
CCOC(=O)[C@@]1(C#N)C(c2ccc(Cl)c(Cl)c2)[C@H](C(N)=O)N2C=C(C(C)=O)C=C[C@H]21 (stereo partly drawn) | 0.0752
CCOC(=O)c1sc(/N=C/c2c(O)n(-c3ccccc3)c(=O)[nH]c2=O)c(C#N)c1C | -0.66
CSC1=NP(=S)(SC)N2CCCC2=C1C#N (stereo not drawn) | -0.415
CCCc1nc2ccccc2c(=O)n1-c1ccc(OC)cc1 | -0.69
O=C1c2ccccc2C(=O)N1Cc1nc2ccccc2c(=O)n1-c1cccnc1 | 0.42
O=C(C1CC(=O)N(C2CCCC2)C1)N1CCC2(CC1)OCCO2 (stereo not drawn) | 0.129
O=c1cc(C(F)(F)F)c2cc3c4c(c2o1)CCCN4CCC3 | -0.793
CON(C)C(=O)Nc1ccc(Cl)cc1 | 0.516
Fc1ccc(CCNCc2ccccc2Cl)cc1 | 0.251
CCn1c(O)c(/C=N/N2CCOCC2)c(=O)n(CC)c1=S | -0.174
CC1CCCC(C)N1/N=C/c1c[nH]c2ccc(Br)cc12 (stereo not drawn) | 0.436
CC(C)c1cccc(C(C)C)c1OCCn1ccnc1 | 2.23
CC1CCCN(CC(=O)N2CCCc3ccccc32)C1 (stereo not drawn) | 0.118
CN(C)CCOC(=O)c1cn(Cc2ccccc2)c2ccccc12 | 2.01
